What follows are compounds tested on MLKL phosphorylation, HT29-L23 human colorectal adenocarcinoma cells (assay: cells). Details: read-out: pMLKL HCS Cell Assay (IC50, uM).

Compared with `Cc1nc(C)c(-c2cc(C(F)(F)F)c3c(N)ncnn23)cc1C(=O)N[C@@H]1CN(C(=O)[C@@](C)(O)C(F)(F)F)C[C@@H]1F` [Example 1185, 5-[4-amino-5-(trifluoromethyl)pyrrolo[2,1-f][1,2,4]triazin-7-yl]-N-[(3R,4S)-4-fluoro-1-[(2R)-3,3,3-trifluoro-2-hydroxy-2-methylpropanoyl]pyrrolidin-3-yl]-2,6-dimethylpyridine-3-carboxamide], `Cc1cc(F)c(-c2cc(C(F)(F)F)c3c(N)ncnn23)cc1C(=O)N[C@@H]1CN(C(=O)C(C)C(F)(F)F)C[C@@H]1F` (stereo partly drawn) [Example 858, 5-[4-amino-5-(trifluoromethyl)pyrrolo[2,1-f][1,2,4]triazin-7-yl]-4-fluoro-N-[(3R,4S)-4-fluoro-1-(3,3,3-trifluoro-2-methylpropanoyl)pyrrolidin-3-yl]-2-methylbenzamide] is 26-fold lower in IC50: 0.189 µM for the first, 0.0072 µM for the second.

First: Cc1ncc(-c2cc(C(F)(F)F)c3c(N)ncnn23)cc1C(=O)Nc1cnn(CCC(C)(O)C(F)(F)F)c1 (stereo not shown) [Example 1791, 5-(4-amino-5-(trifluoromethyl)pyrrolo[2,1-f][1,2,4]triazin-7-yl)-2-methyl-N-(1-(4,4,4-trifluoro-3-hydroxy-3-methylbutyl)-1H-pyrazol-4-yl)nicotinamide]
Second: Cc1ncc(-c2cc(C(F)(F)F)c3c(N)ncnn23)cc1C(=O)NC1CN(C(=O)C2CC2(F)F)C[C@@H]1F (single isomer, unassigned) [Example 355, 5-[4-amino-5-(trifluoromethyl)pyrrolo[2,1-f][1,2,4]triazin-7-yl]-N-[1-(2,2-difluorocyclopropanecarbonyl)-4-fluoropyrrolidin-3-yl]-2-methyl-pyridine-3-carboxamide]
The IC50 of the first is 4-fold higher: 0.031 µM for the first, 0.0078 µM for the second. The second is the more potent here.

First: Cc1cc(F)c(-c2cc(CN3CCC(F)(F)CC3)c3c(N)ncnn23)cc1C(=O)N[C@@H]1CN(C(=O)C2CC(F)(F)C2)C[C@@H]1F [Example 1578, 5-{4-amino-5-[(4,4-difluoropiperidin-1-yl)methyl]pyrrolo[2,1-f][1,2,4]triazin-7-yl}-N-[(3R,4S)-1-(3,3-difluorocyclobutanecarbonyl)-4-fluoropyrrolidin-3-yl]-4-fluoro-2-methylbenzamide]
Second: COc1ncc(-c2cc(CN3CCC(F)(F)CC3)c3c(N)ncnn23)cc1C(=O)N[C@@H]1CN(C(=O)c2ccc(F)cn2)C[C@@H]1F [Example 1264, 5-{4-amino-5-[(4,4-difluoropiperidin-1-yl)methyl]pyrrolo[2,1-f][1,2,4]triazin-7-yl}-N-[(3R,4S)-4-fluoro-1-(5-fluoropyridine-2-carbonyl)pyrrolidin-3-yl]-2-methoxypyridine-3-carboxamide]
The IC50 of the first is 3.9-fold lower: 0.001 µM for the first, 0.0039 µM for the second.

Compared with `Cc1ccc(-c2cc(C(F)(F)F)c3c(N)ncnn23)cc1C(=O)N[C@@H]1CN(C(=O)CC(C)C(F)(F)F)C[C@@H]1F` (stereo partly drawn) [Example 992, 5-[4-amino-5-(trifluoromethyl)pyrrolo[2,1-f][1,2,4]triazin-7-yl]-N-[(3R,4S)-4-fluoro-1-(4,4,4-trifluoro-3-methylbutanoyl)pyrrolidin-3-yl]-2-methylbenzamide], `CC(C(=O)N1C[C@H](F)[C@H](NC(=O)c2cc(-c3cc(C(F)(F)F)c4c(N)ncnn34)ccc2OC(F)F)C1)C(F)(F)F` (stereo partly drawn) [Example 1093, 5-[4-amino-5-(trifluoromethyl)pyrrolo[2,1-f][1,2,4]triazin-7-yl]-2-(difluoromethoxy)-N-[(3R,4S)-4-fluoro-1-(3,3,3-trifluoro-2-methylpropanoyl)pyrrolidin-3-yl]benzamide] is 18-fold higher in IC50: 0.002 µM for the first, 0.036 µM for the second. The first is the more potent here.

First: COc1ncc(-c2cc(Cn3ccnc3)c3c(N)ncnn23)cc1C(=O)N[C@@H]1CN(C(=O)C2CC(F)(F)C2)C[C@@H]1F [Example 1703, 5-(5-((1H-imidazol-1-yl)methyl)-4-aminopyrrolo[2,1-f][1,2,4]triazin-7-yl)-N-((3R,4S)-1-(3,3-difluorocyclobutane-1-carbonyl)-4-fluoropyrrolidin-3-yl)-2-methoxynicotinamide]
Second: COc1ncc(-c2ccc3c(N)ncnn23)cc1C(=O)N[C@@H]1CN(C(=O)C2CC(F)C2)C[C@@H]1F (stereo partly drawn) [Example 157, 5-{4-aminopyrrolo[2,1-f][1,2,4]triazin-7-yl}-N-[(3R,4S)-4-fluoro-1-(3-fluorocyclobutanecarbonyl)pyrrolidin-3-yl]-2-methoxypyridine-3-carboxamide]
The IC50 of the first is 2-fold higher: 0.309 µM for the first, 0.156 µM for the second.

Compared with `COc1ncc(-c2cc(C(=O)NCCO)c3c(N)ncnn23)cc1C(=O)NCC[C@H](O)c1ccc(Cl)cc1` [Example 474, 5-{4-amino-5-[(2-hydroxyethyl)carbamoyl}pyrrolo[2,1-f][1,2,4]triazin-7-yl]-N-[(3S)-3-(4-chlorophenyl)-3-hydroxypropyl]-2-methoxypyridine-3-carboxamide], `COc1ncc(-c2cc(C(F)(F)F)c3c(N)ncnn23)cc1NC(=O)CCC(O)c1ccc(Cl)cc1` (stereo not shown) [Example 1766, N-(5-(4-amino-5-(trifluoromethyl)pyrrolo[2,1-f][1,2,4]triazin-7-yl)-2-methoxypyridin-3-yl)-4-(4-chlorophenyl)-4-hydroxybutanamide] is 3.8-fold higher in IC50: 0.098 µM for the first, 0.375 µM for the second.

`Nc1ncnn2c(-c3ccc(Cl)c(C(=O)N[C@@H]4CN(C(=O)CC(F)(F)F)C[C@@H]4F)c3)cc(CN3CCC(C(F)(F)F)CC3)c12` [Example 1155, 5-(4-amino-5-{[4-(trifluoromethyl)piperidin-1-yl]methyl}pyrrolo[2,1-f][1,2,4]triazin-7-yl)-2-chloro-N-[(3R,4S)-4-fluoro-1-(3,3,3-trifluoropropanoyl)pyrrolidin-3-yl]benzamide] and `Nc1ncnn2c(-c3ccc(CF)c(C(=O)N[C@@H]4CN(C(=O)C5CC5(F)F)C[C@@H]4F)c3)cc(C(F)(F)F)c12` (stereo partly drawn) [Example 914, 5-[4-amino-5-(trifluoromethyl)pyrrolo[2,1-f][1,2,4]triazin-7-yl]-N-[(3R,4S)-1-(2,2-difluorocyclopropanecarbonyl)-4-fluoropyrrolidin-3-yl]-2-(fluoromethyl)benzamide] are within 1.5-fold of each other in IC50: 0.011 µM for the first, 0.0095 µM for the second.

First: COc1ncc(-c2cc(C(F)(F)F)c3c(NC(C)=O)ncnn23)cc1C(=O)N[C@@H]1CN(C(=O)CC(O)(C(F)(F)F)C(F)(F)F)C[C@@H]1F [Example 1340, 5-[4-acetamido-5-(trifluoromethyl)pyrrolo[2,1-f][1,2,4]triazin-7-yl]-N-[(3R,4S)-4-fluoro-1-[4,4,4-trifluoro-3-hydroxy-3-(trifluoromethyl)butanoyl]pyrrolidin-3-yl]-2-methoxypyridine-3-carboxamide]
Second: COc1ncc(-c2cc(C(F)(F)F)c3c(N)ncnn23)cc1C(=O)N[C@@H]1CN(C(=O)C(C)(C)OCC(F)F)C[C@@H]1F [Example 1217, 5-[4-amino-5-(trifluoromethyl)pyrrolo[2,1-f][1,2,4]triazin-7-yl]-N-[(3R,4S)-1-[2-(2,2-difluoroethoxy)-2-methylpropanoyl]-4-fluoropyrrolidin-3-yl]-2-methoxypyridine-3-carboxamide]
The IC50 of the first is 20-fold lower: 0.0033 µM for the first, 0.067 µM for the second. The first is the more potent here.

First: COc1ncc(-c2cc(C(F)(F)F)c3c(N)ncnn23)cc1C(=O)N1CCCN(Cc2ccccc2)C1 [Example 150, 7-[5-(3-benzyl-1,3-diazinane-1-carbonyl)-6-methoxypyridin-3-yl]-5-(trifluoromethyl)pyrrolo[2,1-f][1,2,4]triazin-4-amine]
Second: COc1ncc(-c2cc(C(F)(F)F)c3c(N)ncnn23)cc1C(=O)N1CCCC(Cc2cccc(F)c2)C1 (stereo not shown) [Example 129, 7-(5-{3-[(3-fluorophenyl)methyl]piperidine-1-carbonyl}-6-methoxypyridin-3-yl)-5-(trifluoromethyl)pyrrolo[2,1-f][1,2,4]triazin-4-amine]
The IC50 of the first is 18-fold higher: 0.397 µM for the first, 0.022 µM for the second.

Compared with `COc1ncc(-c2cc(C(F)(F)F)c3c(N)ncnn23)cc1C(=O)N[C@@H]1CN(Cc2ccc(F)cn2)C[C@@H]1F` [Example 464, 5-[4-amino-5-(trifluoromethyl)pyrrolo[2,1-f][1,2,4]triazin-7-yl]-N-[(3R,4S)-4-fluoro-1-[(5-fluoropyridin-2-yl)methyl]pyrrolidin-3-yl]-2-methoxypyridine-3-carboxamide], `COc1ncc(-c2cc(C(F)(F)F)c3c(N)ncnn23)cc1C(=O)NC1CN(Cc2cccc(C)n2)CC1F` (racemic) [Example 205, 5-[4-amino-5-(trifluoromethyl)pyrrolo[2,1-f][1,2,4]triazin-7-yl]-N-{4-fluoro-1-[(6-methylpyridin-2-yl)methyl]pyrrolidin-3-yl}-2-methoxypyridine-3-carboxamide] is 1.5-fold lower in IC50: 0.033 µM for the first, 0.022 µM for the second.

`COc1ncc(-c2cc(C(F)(F)F)c3c(N)ncnn23)cc1C(=O)NC1CN(CC2CCOC2)CC1F` (racemic) [Example 186, 5-[4-amino-5-(trifluoromethyl)pyrrolo[2,1-f][1,2,4]triazin-7-yl]-N-{4-fluoro-1-[(oxolan-3-yl)methyl]pyrrolidin-3-yl}-2-methoxypyridine-3-carboxamide] and `COc1ncc(-c2cc(C(F)(F)F)c3c(N)ncnn23)cc1C(=O)NC1CN(Cc2cccc3cccnc23)CC1F` (racemic) [Example 226, 5-[4-amino-5-(trifluoromethyl)pyrrolo[2,1-f][1,2,4]triazin-7-yl]-N-{4-fluoro-1-[(quinolin-8-yl)methyl]pyrrolidin-3-yl}-2-methoxypyridine-3-carboxamide] are within 1.5-fold of each other in IC50: 0.228 µM for the first, 0.259 µM for the second.

`COc1ncc(-c2cc(C(F)(F)F)c3c(N)ncnn23)cc1C(=O)N[C@H]1CCC[C@@H](c2ccc(Cl)cc2)C1` (racemic) [Example 1698, 5-(4-amino-5-(trifluoromethyl)pyrrolo[2,1-f][1,2,4]triazin-7-yl)-N-((1SR,3RS)-3-(4-chlorophenyl)cyclohexyl)-2-methoxynicotinamide] and `COc1ncc(-c2cc(C(F)(F)F)c3c(N)ncnn23)cc1C(=O)NC1CN(C(C)c2cnc(C)nc2C)C[C@@H]1F` (stereo partly drawn) [Example 1396, 5-[4-amino-5-(trifluoromethyl)-pyrrolo[2,1-f][1,2,4]triazin-7-yl]-N-[(3R,4S)-1-[1-(2,4-dimethylpyrimidin-5-yl)ethyl]-4-fluoropyrrolidin-3-yl]-2-methoxypyridine-3-carbox-amide] are within 1.5-fold of each other in IC50: 0.026 µM for the first, 0.033 µM for the second.

`CNc1ccc(-c2cc(C(F)(F)F)c3c(N)ncnn23)cc1C(=O)N[C@@H]1CN(C(=O)C2CC(F)(F)C2)C[C@@H]1F` [Example 566, 5-(4-amino-5-(trifluoromethyl)pyrrolo[2,1-f][1,2,4]triazin-7-yl)-N-((3R,4S)-1-(3,3-difluorocyclobutane-1-carbonyl)-4-fluoropyrrolidin-3-yl)-2-(methylamino)benzamide] was tested, and the IC50 was 0.031 µM.
